Read-outs that look alike come from different tables or passages of the source.

This note sets out measurements from patent US20190276511A1 (BIONTECH RNA PHARMACEUTICALS, published 2019).

In experiment [1] the target is T1, CD40-Fc (human, UniProt P25942 fragment).
T1 construct: extracellular domain; hinge included for covalent assembly; also called CD40 receptor-Fc fusion protein; not shown: human Fc gamma 1 region including the hinge region
Put plainly: ELISA, coated receptor-Fc. The method, then: (§1) Receptor binding of the Duokines was analyzed by ELISA using fusion proteins of the extracellular region of CD40, CD27, 4-1BB and OX40, respectively, with the human Fcγ1 region including the hinge region for covalent assembly (CD40-Fc, CD27-Fc, 4-1BB-Fc, OX40-Fc). Receptor-Fc fusion proteins (200 ng/well) were coated overnight at 4° C. and remaining binding sites were blocked with PBS, 2% skimmed milk powder (2% MPBS).
(In general: An ELISA detects its analyte on a solid surface through an enzyme-linked reagent.)

For experiment [2], the target named is T2, 4-1BB-Fc (human, UniProt Q07011 24-186).
T2 construct: extracellular domain; hinge included for covalent assembly; also called 4-1BB receptor-Fc fusion protein; not shown: human Fc gamma 1 region including the hinge region
Put plainly: ELISA, coated receptor-Fc. The method, then:
as §1

Experiment [3] has as its target T3, CD27-Fc (human, UniProt P26842 20-191).
T3 construct: extracellular domain; hinge included for covalent assembly; also called CD27 receptor-Fc fusion protein; not shown: human Fc gamma 1 region including the hinge region
T3 sequence (looked up): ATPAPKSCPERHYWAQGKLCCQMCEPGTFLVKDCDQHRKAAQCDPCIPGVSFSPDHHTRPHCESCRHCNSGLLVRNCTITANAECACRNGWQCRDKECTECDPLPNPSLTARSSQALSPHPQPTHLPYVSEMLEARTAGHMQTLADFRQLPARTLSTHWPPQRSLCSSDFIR
Put plainly: ELISA, coated receptor-Fc.

In the next experiment the target is T4, OX40-Fc (human, UniProt P43489 29-214).
T4 construct: extracellular domain; hinge included for covalent assembly; also called OX40 receptor-Fc fusion protein; not shown: human Fc gamma 1 region including the hinge region
T4 sequence (looked up): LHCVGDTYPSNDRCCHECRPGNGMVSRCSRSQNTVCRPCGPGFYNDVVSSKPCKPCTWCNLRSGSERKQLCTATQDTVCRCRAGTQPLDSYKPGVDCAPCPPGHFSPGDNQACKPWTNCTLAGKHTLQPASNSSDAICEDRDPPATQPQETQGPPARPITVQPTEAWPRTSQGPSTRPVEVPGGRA
Put plainly: ELISA, coated receptor-Fc.

Experiment [4] deals with T5, CD40 receptor on cells (human, UniProt P25942 21-277). Put plainly: cell-based or functional assay.
Experiment [5] addresses T6, 4-1BB receptor on cells (human, UniProt Q07011 24-255). Put plainly: cell-based or functional assay.
In experiment [6] the target is T3, CD27-Fc. Put plainly: ELISA, coated receptor-Fc. The method, then:
(§2) Receptor binding of the EHD2-scDuokines was analyzed by ELISA using fusion proteins of the extracellular region of CD40, CD27 and 4-1BB, respectively, with the human Fcγ1 region including the hinge region for covalent assembly (CD40-Fc, CD27-Fc, 4-1BB-Fc). Receptor-Fc fusion proteins (200 ng/well) were coated overnight at 4° C. and remaining binding sites were blocked with PBS, 2% skimmed milk powder (2% MPBS).
This is another data set of the same source.

For experiment [7], the target named is T2, 4-1BB-Fc. Put plainly: ELISA, coated receptor-Fc. Here is the method: as §2
This is another data set of the same source.

Experiment [8] has as its target T6, 4-1BB receptor on cells. Put plainly: cell-based or functional assay. The source holds these as a separate data set.
In experiment [9] the target is T1, CD40-Fc. Put plainly: ELISA, coated receptor-Fc. The source holds these as a separate data set.
Experiment [10] addresses T1, CD40-Fc. Put plainly: ELISA, coated receptor-Fc. The method, then:
as §2
This is another data set of the same source.

Experiment [11] addresses T5, CD40 receptor on cells. Put plainly: cell-based or functional assay. This is another data set of the same source.

T6 sequence (Q07011 24-255): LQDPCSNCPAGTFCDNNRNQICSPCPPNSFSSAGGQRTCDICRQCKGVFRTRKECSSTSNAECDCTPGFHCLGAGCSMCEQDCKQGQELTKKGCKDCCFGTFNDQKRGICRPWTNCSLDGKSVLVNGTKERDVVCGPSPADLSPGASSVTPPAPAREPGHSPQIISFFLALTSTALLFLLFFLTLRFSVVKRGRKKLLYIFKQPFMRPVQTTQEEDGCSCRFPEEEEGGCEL
T1 sequence (P25942 21-193 limits assumed): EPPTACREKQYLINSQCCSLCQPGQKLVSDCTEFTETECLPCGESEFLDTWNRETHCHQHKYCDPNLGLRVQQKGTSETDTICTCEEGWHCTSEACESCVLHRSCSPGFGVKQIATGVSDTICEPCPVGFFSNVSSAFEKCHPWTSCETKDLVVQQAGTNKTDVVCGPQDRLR
T5 sequence (P25942 21-277): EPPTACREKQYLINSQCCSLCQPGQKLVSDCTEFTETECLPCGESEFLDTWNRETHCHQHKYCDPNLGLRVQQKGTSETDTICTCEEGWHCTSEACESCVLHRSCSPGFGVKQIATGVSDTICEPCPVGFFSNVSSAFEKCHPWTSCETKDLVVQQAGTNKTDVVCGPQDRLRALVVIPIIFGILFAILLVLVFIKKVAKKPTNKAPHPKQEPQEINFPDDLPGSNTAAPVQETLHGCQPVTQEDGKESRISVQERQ

B1: 4-1BBL-CD40L (ligand)
chain: [not shown - about 200 residues]GGGGSGGGGSGGGGSGGGGSGDQNPQIAAHVISEASSKTTSVLQWAEKGYYTMSNNLVTLENGKQLTVKRQGLYYIYAQVTFCSNREASSQAPFIASLCLKSPGRFERILLRAANTHSSAKPCGQQSIHLGGVFELQPGASVFVNVTDPSQVSHGTGFTSFGLLKL
notes: Duokine from HEK293, FLAG-purified; VH leader left out; homotrimer by SEC; also called Duokine 4-1BBL-CD40L; not shown: N-terminal FLAG tag
With B1, the figures for the EC50 with CD40-Fc [1] and in the experiment with 4-1BB-Fc [2] were 1.61 nM and 1.78 nM, respectively. Moreover, the binding result in the experiment with CD27-Fc [3] and with OX40-Fc was “no binding (tested: 100 nM (FIG. 4))” throughout. For the same molecule, the “Receptor activation (EC50, nM)” value is 2.95 nM with CD40 receptor on cells [4] and 0.18 nM in the experiment with 4-1BB receptor on cells [5].

B2: sc4-1BBL-EHD2-scCD27L (ligand)
chain: [not shown - about 200 residues]GGGGSGGGGSGGGGSREGPELSPDDPAGLLDLRQGMFAQLVAQNVLLIDGPLSWYSDPGLAGVSLTGGLSYKEDTKELVVAKAGVYYVFFQLELRRVVAGEGSGSVSLALHLQPLRSAAGAAALALTVDLPPASSEARNSAFGFQGRLLHLSAGQRLGVHLHTEARARHAWQLTQGATVLGLFRVTPEIPAGLPSPRSEGGGGSGGGGSGGGGSREGPELSPDDPAGLLDLRQGMFAQLVAQNVLLIDGPLSWYSDPGLAGVSLTGGLSYKEDTKELVVAKAGVYYVFFQLELRRVVAGEGSGSVSLALHLQPLRSAAGAAALALTVDLPPASSEARNSAFGFQGRLLHLSAGQRLGVHLHTEARARHAWQLTQGATVLGLFRVTPEIPAGLPSPRSEGGSGGDFTPPTVKILQSSCDGGGHFPPTIQLLCLVSGYTPGTINITWLEDGQVMDVDLSTASTTQEGELASTQSELTLSQKHWLSDRTYTCQVTYQGHTFEDSTKKCADSNGGSGGSLGWDVAELQLNHTGPQQDPRLYWQGGPALGRSFLHGPELDKGQLRIHRDGIYMVHIQVTLAICSSTTASRHHPTTLAVGICSPASRSISLLRLSFHQGCTIASQRLTPLARGDTLCTNLTGTLLPSRNTDETFFGVQWVRPGGGSGGGSLGWDVAELQLNHTGPQQDPRLYWQGGPALGRSFLHGPELDKGQLRIHRDGIYMVHIQVTLAICSSTTASRHHPTTLAVGICSPASRSISLLRLSFHQGCTIASQRLTPLARGDTLCTNLTGTLLPSRNTDETFFGVQWVRPGGGSGGGSLGWDVAELQLNHTGPQQDPRLYWQGGPALGRSFLHGPELDKGQLRIHRDGIYMVHIQVTLAICSSTTASRHHPTTLAVGICSPASRSISLLRLSFHQGCTIASQRLTPLARGDTLCTNLTGTLLPSRNTDETFFGVQWVRP
notes: From HEK293; Ig kappa leader left out; dimer through EHD2, about 50% covalently linked, SEC major peak at monomer size; also called EHD2-scDuokine sc4-1BBL-EHD2-scCD27L; not shown: N-terminal FLAG tag
On to B2, for which the EC50 (as a rule, the concentration that produces a half-maximal response) in the experiment with CD27-Fc [6] turned out to be 2 nM; with 4-1BB-Fc [7], 1.93 nM. In addition, the “Receptor activation (EC50, nM), IL-8 release from HT1080 cells” value in the experiment with 4-1BB receptor on cells [8] was determined as 1.64 nM. Moreover, the binding result with CD40-Fc [9] is reported as “no binding (tested: 100 nM (FIG. 16))”.

B3: sc4-1BBL-EHD2-scCD40L (ligand)
chain: [not shown - about 200 residues]GGGGSGGGGSGGGGSREGPELSPDDPAGLLDLRQGMFAQLVAQNVLLIDGPLSWYSDPGLAGVSLTGGLSYKEDTKELVVAKAGVYYVFFQLELRRVVAGEGSGSVSLALHLQPLRSAAGAAALALTVDLPPASSEARNSAFGFQGRLLHLSAGQRLGVHLHTEARARHAWQLTQGATVLGLFRVTPEIPAGLPSPRSEGGGGSGGGGSGGGGSREGPELSPDDPAGLLDLRQGMFAQLVAQNVLLIDGPLSWYSDPGLAGVSLTGGLSYKEDTKELVVAKAGVYYVFFQLELRRVVAGEGSGSVSLALHLQPLRSAAGAAALALTVDLPPASSEARNSAFGFQGRLLHLSAGQRLGVHLHTEARARHAWQLTQGATVLGLFRVTPEIPAGLPSPRSEGGSGGDFTPPTVKILQSSCDGGGHFPPTIQLLCLVSGYTPGTINITWLEDGQVMDVDLSTASTTQEGELASTQSELTLSQKHWLSDRTYTCQVTYQGHTFEDSTKKCADSNGGSGGGDQNPQIAAHVISEASSKTTSVLQWAEKGYYTMSNNLVTLENGKQLTVKRQGLYYIYAQVTFCSNREASSQAPFIASLCLKSPGRFERILLRAANTHSSAKPCGQQSIHLGGVFELQPGASVFVNVTDPSQVSHGTGFTSFGLLKLGGGSGGGGDQNPQIAAHVISEASSKTTSVLQWAEKGYYTMSNNLVTLENGKQLTVKRQGLYYIYAQVTFCSNREASSQAPFIASLCLKSPGRFERILLRAANTHSSAKPCGQQSIHLGGVFELQPGASVFVNVTDPSQVSHGTGFTSFGLLKLGGGSGGGGDQNPQIAAHVISEASSKTTSVLQWAEKGYYTMSNNLVTLENGKQLTVKRQGLYYIYAQVTFCSNREASSQAPFIASLCLKSPGRFERILLRAANTHSSAKPCGQQSIHLGGVFELQPGASVFVNVTDPSQVSHGTGFTSFGLLKL
notes: From HEK293; Ig kappa leader left out; also called EHD2-scDuokine sc4-1BBL-EHD2-scCD40L; not shown: N-terminal FLAG tag
Regarding B3, the figures for the EC50 with CD40-Fc [10] and with 4-1BB-Fc [7] were 3.06 nM and 3.61 nM, respectively. Besides, the entries for the “Receptor activation (EC50, nM), IL-8 release from HT1080 cells” value in the experiment with CD40 receptor on cells [11] and with 4-1BB receptor on cells [8] were 0.75 nM and 0.27 nM, respectively. The binding result with CD27-Fc [3] is listed as “no binding (tested: 100 nM (FIG. 16))”.
